The campaign covered roughly 410,000 compounds. About 6,400 (1.6%) were called active. The inconclusive results got no clear call from the source; some entries with a clear call stand among them for comparison. Calls come from the whole dose curve; as a rule, active = well fitted inhibition curve with a large enough effect; inconclusive = small, poorly fitted or top-dose-only effect; inactive = no such curve, though single readings can be large or run the other way. Potencies of inconclusive entries are left out as doubtful fits.
These molecules were tested against Glucagon-like peptide 1 receptor (Homo sapiens) (UniProt P43220) (assay: qHTS of GLP-1 Receptor Inverse Agonists (Inhibition Mode)). Details: HEK293 GLP-1R CRE-luciferase, luminescence, 24 h, GLP-1R form is constitutively active; activity change, negative = inhibition: at 38.3 µM (top of the series) unless noted.
Chain of UniProt P43220 (P43220 whole entry, looked up): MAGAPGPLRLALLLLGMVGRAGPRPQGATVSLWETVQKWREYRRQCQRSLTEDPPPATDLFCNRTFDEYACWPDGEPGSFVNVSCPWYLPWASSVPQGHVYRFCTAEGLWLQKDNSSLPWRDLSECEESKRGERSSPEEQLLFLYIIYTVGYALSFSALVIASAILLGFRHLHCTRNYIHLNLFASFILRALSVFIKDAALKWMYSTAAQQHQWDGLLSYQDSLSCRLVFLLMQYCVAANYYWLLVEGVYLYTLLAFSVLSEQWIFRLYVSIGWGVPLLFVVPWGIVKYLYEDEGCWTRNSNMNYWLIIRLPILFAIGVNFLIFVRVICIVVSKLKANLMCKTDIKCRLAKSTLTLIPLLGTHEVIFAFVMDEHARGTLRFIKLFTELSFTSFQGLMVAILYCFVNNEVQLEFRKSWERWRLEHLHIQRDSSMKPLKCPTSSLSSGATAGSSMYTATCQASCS
Outline: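 Seeding at 200 cells/uL, 12 h culture, 24 hr compound treatment, then luciferase reagent and a luminescence read; cells are HEK293 stably expressing a constitutively active GLP-1R plus cAMP-responsive luciferase.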
`CC(C)COC(=O)/C(C#N)=C/c1c[nH]c2ccccc12` was tested, and the Potency was inconclusive [inhibitor, partial curve, poor fit]. For `Cc1ccc(-n2ncc(C(=O)NCCCN3CCN(c4cccc(Cl)c4)CC3)c2-n2cccc2)cc1`, the Potency was inconclusive [inhibitor, partial curve]. For `O=C(NC1CCCCC1)C(c1ccccc1)N(C(=O)c1cccs1)c1ccc2c(c1)OCO2` (configuration not stated), the “activity change, negative = inhibition” value was inactive: -0.0815%. For `O=C(c1ccco1)N1CCN(C2c3ccccc3-c3ccccc32)CC1`, the Potency was inconclusive [inhibitor, single point]. With `O=C(CSC1=Nc2ccccc2N=C(c2ccc(F)cc2)C1)NCc1ccccc1` the “activity change, negative = inhibition” value was inactive: -8%. `COc1ccc(S(=O)(=O)N(C)C)cc1NCC(=O)Nc1cccc2ccccc12` was tested, and the “activity change, negative = inhibition” value was inactive: -17.5%. With `CCCSc1oc(-c2cccs2)nc1S(=O)(=O)c1ccc(Cl)cc1` the Potency was inconclusive [inhibitor, single point]. In the case of `COC(=O)[C@]12CCCCC=C1N(Cc1ccccc1)C(=O)[C@H](CC(=O)NCC13CC4CC(CC(C4)C1)C3)C2`, the Potency is reported as active: 10 µM. `C=C1C(=O)[C@]23C[C@H]1CC[C@H]2[C@]1(C)[C@@H](OC(C)=O)CC[C@@](C)(C(=O)O)[C@H]1C[C@@H]3OC(C)=O` was tested, and the Potency was inconclusive [inhibitor, single point]. For `O=C(c1cnc(N2CCCCC2)c2ccccc12)N1CCN(c2ccccc2F)CC1`, the Potency was inconclusive [inhibitor, single point]. `COc1ccc(OCCCC(=O)N2CCCc3ccccc32)cc1` was tested, and the Potency was inconclusive [inhibitor, single point]. In the case of `Cc1ccc2c(c1)c1c(c(=O)n(Cc3ccccc3)c(=O)n1Cc1cccc(C(F)(F)F)c1)n2C`, the “activity change, negative = inhibition” value is reported as inactive: 8.41%. `C=C1c2ccccc2NC(=S)N1Cc1ccc2c(c1)OCO2` was tested, and the Potency was inconclusive [inhibitor, single point]. `COc1ccc(Cn2c(CNS(=O)(=O)c3ccc4c(c3)CCCC4)nc3cccnc32)cc1` was tested, and the “activity change, negative = inhibition” value was inactive: -11.2%. In the case of `Cc1nn(C(C)(C)C)c(OC(=O)c2cccs2)c1S(=O)(=O)c1ccccc1`, the Potency is reported as inconclusive [inhibitor, partial curve, poor fit]. With `COc1ccc(NC(=O)c2ccc(Oc3ncccn3)cc2)cc1` the “activity change, negative = inhibition” value was inactive: -1.83%. For `CS(=O)(=O)N(CC(=O)Nc1cccc([N+](=O)[O-])c1)c1cccc(F)c1`, the Potency was inconclusive [inhibitor, single point]. For `COc1ccc(-c2nc3c4ccccc4ccn3c2Cc2ccsc2)cc1OC`, the Potency was inconclusive [inhibitor, single point]. In the case of `COc1ccc(N2CCN(Cc3cc(=O)oc4cc5c(cc34)CCCC5)CC2)cc1`, the “activity change, negative = inhibition” value is reported as inactive: 3.5%. With `COc1ccc(-c2nc3cc(NC(=O)Cc4ccc(OC)c(OC)c4)ccc3o2)cc1` the “activity change, negative = inhibition” value was inactive: 33.9%. With `Cc1ccc(CNC(=O)C(=O)NCCC2CCCCN2S(=O)(=O)c2ccc(C)cc2)cc1` (configuration not stated) the Potency was inconclusive [inhibitor, partial curve, poor fit]. For `O=C(COc1ccc(/C=N/NS(=O)(=O)c2ccccc2)cc1)Nc1ccc(F)cc1`, the Potency was inconclusive [inhibitor, full curve, poor fit]. In the case of `O/N=C(\c1ccccn1)C1CC1c1ccccc1` (configuration not stated), the “activity change, negative = inhibition” value is reported as inactive: 4.25%. For `CS(=O)(=O)n1nc(OC(=O)c2cc(Br)ccc2Cl)cc1N`, the “activity change, negative = inhibition” value was inactive: 14.5%. With `COc1ccc(/C=C/C(=O)c2ccccc2)cc1Cn1nnc2ccccc21` the Potency was inconclusive [inhibitor, single point]. With `CCOc1ccccc1Nc1nnc(SCc2nnc(-c3cc(OC)c(OC)c(OC)c3)o2)s1` the Potency was inconclusive [inhibitor, partial curve, poor fit]. With `O=C(CCCN1C(=O)/C(=C/c2ccccc2Cl)SC1=S)NNC(=O)c1ccccc1Cl` the Potency was inconclusive [inhibitor, single point]. With `CCCCC(=O)Nc1ccc(C(=O)N(CC)c2ccccc2C)cc1` the Potency was inconclusive [inhibitor, partial curve]. `CCN1C(=O)C2(Nc3ccccc3-c3nc4ccccc4n32)c2cc(OC)ccc21` (configuration not stated) was tested, and the Potency was inconclusive [inhibitor, single point]. For `Cn1c(CN2CCN(CC#N)CC2)c(C#N)c2ccccc21`, the Potency was inconclusive [inhibitor, single point]. For `Cc1cccc(-c2noc(CN(C(=O)c3ccccc3Cl)C(C)C)n2)c1`, the Potency was inconclusive [inhibitor, single point]. `CC1(C(=O)NS(=O)(=O)c2cccs2)CCN1C(=O)C1(c2ccc(Cl)cc2)CCC1` (configuration not stated) was tested, and the Potency was inconclusive [inhibitor, partial curve, poor fit]. `O=S(=O)(N(Cc1ccccc1)[C@H](CO)Cc1ccccc1)N(Cc1ccccc1)[C@H](CO)Cc1ccccc1` was tested, and the “activity change, negative = inhibition” value was inactive: -5.22%. `Cc1cc2oc(=O)c(CC(=O)O)c(C)c2c2occ(-c3ccc(F)cc3)c12` was tested, and the Potency was inconclusive [inhibitor, full curve]. With `CCN(c1ccc(C)cc1)S(=O)(=O)c1nnc(NC(=O)c2ccco2)s1` the Potency was inconclusive [inhibitor, partial curve, poor fit]. In the case of `O=C(CN1CCN(Cc2ccc(Cl)cc2)CC1)N/N=C/c1cccs1`, the Potency is reported as inconclusive [inhibitor, partial curve]. `COc1ccc(CNC(=O)c2c(C)oc3c2C(=O)c2ccccc2C3=O)cc1` was tested, and the “activity change, negative = inhibition” value was inactive: -15.1%. In the case of `COc1ccc(NS(=O)(=O)c2cc(Br)cc3c2N(C(C)=O)CC3)cc1`, the Potency is reported as inconclusive [inhibitor, partial curve, poor fit]. `CN(C)CCCCOc1ccccc1-c1ccccc1` was tested, and the “activity change, negative = inhibition” value was inactive: 0%. For `CO/N=C/C(=N\Nc1ccccc1)C(=O)c1ccccc1`, the Potency was inconclusive [inhibitor, single point]. For `COc1ccc(/C=N\NC(=O)c2ccc(F)cc2)cc1COc1cc(F)ccc1[N+](=O)[O-]`, the Potency was inconclusive [inhibitor, single point]. For `Cc1ccc(C)n1-c1nn(S(=O)(=O)c2cccc3cccnc23)c2cccc(F)c12`, the Potency was inconclusive [inhibitor, single point].

From PubChem BioAssay AID624417 (National Center for Advancing Translational Sciences (NCATS), 2012)
% is set by controls: 0 for no effect and ±100 for the full control effect; potency is the fitted concentration of half-maximal effect; tags give direction and shape of the fitted curve.
Note: nearly all actives have a fitted effect of over 55% in size.
